Data on four variants can be found in the GPR68 mutational scans of Howard et al. (2025).

Scores with a large standard error are left out. Two further conditions of the source, in which the scores hardly spread, are not listed. Read del as a deletion of the residues named and ins as an insertion between two positions. For some of these results: How much ogerin was present is not stated here.

First the molecules themselves.
B1: GPR68, Q15743 (parent)
chain: MGNITADNSSMSCTIDHTIHQTLAPVVYVTVLVVGFPANCLSLYFGYLQIKARNELGVYLCNLTVADLFYICSLPFWLQYVLQHDNWSHGDLSCQVCGILLYENIYISVGFLCCISVDRYLAVAHPFRFHQFRTLKAAVGVSVVIWAKELLTSIYFLMHEEVIEDENQHRVCFEHYPIQAWQRAINYYRFLVGFLFPICLLLASYQGILRAVRRSHGTQKSRKDQIQRLVLSTVVIFLACFLPYHVLLLVRSVWEASCDFAKGVFNAYHFSLLLTSFNCVADPVLYCFVSETTHRDLARLRGACLAFLTCSRTGRAREAYPLGAPEASGKSGAQGEEPELLTKLHPAFQTPNSPGSGGFPTGRLA

In data set [1] the parent is B1. Kind of data set: cAMP reporter score (Enrich2 score, wild type = 0); higher = more signal; HEK293T, FACS bins.
In data set [2] the parent is B1. Kind of data set: surface expression score (Enrich2 score, wild type = 0); higher = more signal; HEK293T, FACS bins.

MGNITADNSSMSCTIDHTIHQTLAPVVYVTVLVVGFPANCLSLYFGYLQIKARNELGVYLCNLTVADLFYICSLPFWLQYVLQHDNWSHGDLSCQVCGILLYENIYISVGFLCCISVDRYLAVAHPFRFHQFRTLKAAVGVSVVIWAKELLTSIYFLMHEEVIEDENQHRVCFEHYPIQAWQRAINYYRFLVGFLFPICLLLASYQGILRAVRRSHGTQKSRKDQIQRLVLSTVVIFLACFLPYHVLLLVRSVWEASCDFAKGVFNAYHFSLLLTSFNCVADPVLYCFVSETTHEDLARLRGACLAFLTCSRTGRAREAYPLGAPEASGKSGAQGEEPELLTKLHPAFQTPNSPGSGGFPTGRLA [R295E]: the cAMP reporter score came to 0.367 in data set [1] (pH 5.5); 0.38 in data set [1] (pH 6); 1.38 in data set [1] (pH 6, modulator: ogerin); 1.18 in data set [1] (pH 6.5, modulator: ogerin). Further, the surface expression score in data set [2] stood at 1.5.

With MGNITADNSSMSCTIDHTIHQTLAPVVYVTVLVVGFPANCLSLYFGYLQIKARNELGVYLCNLTVADLFYICSLPFWLQYVLQHDNWSHGDLSCQVCGILLYENIYISVGFLCCISVDRYLAVAHPFRFHQFRTLKAAVGVSVVIWAKELLTSIYFLMHEEVIEDENQHRVCFEHYPIQAWQRAINYYRFLVGFLFPICLLLASYQGILRAVRRSHGTQKSRKDQIQRLVLSTVVIFLACFLPYHVLLLVRSVWEASCDFAKGVFNAYHFSLLLTSFNCVADPVLYCFVSETTHGDLARLRGACLAFLTCSRTGRAREAYPLGAPEASGKSGAQGEEPELLTKLHPAFQTPNSPGSGGFPTGRLA [R295G], the cAMP reporter score in data set [1] (pH 5.5) is -0.435; in data set [1] (pH 6), -0.211; in data set [1] (pH 6, modulator: ogerin), -0.527; in data set [1] (pH 6.5, modulator: ogerin), -1.15. For the same variant, the surface expression score in data set [2] is 0.597.

In the case of MGNITADNSSMSCTIDHTIHQTLAPVVYVTVLVVGFPANCLSLYFGYLQIKARNELGVYLCNLTVADLFYICSLPFWLQYVLQHDNWSHGDLSCQVCGILLYENIYISVGFLCCISVDRYLAVAHPFRFHQFRTLKAAVGVSVVIWAKELLTSIYFLMHEEVIEDENQHRVCFEHYPIQAWQRAINYYRFLVGFLFPICLLLASYQGILRAVRRSHGTQKSRKDQIQRLVLSTVVIFLACFLPYHVLLLVRSVWEASCDFAKGVFNAYHFSLLLTSFNCVADPVLYCFVSETTHFDLARLRGACLAFLTCSRTGRAREAYPLGAPEASGKSGAQGEEPELLTKLHPAFQTPNSPGSGGFPTGRLA [R295F], the cAMP reporter score is -0.081 in data set [1] (pH 5.5); -1.01 in data set [1] (pH 6); -0.567 in data set [1] (pH 6, modulator: ogerin); -1.2 in data set [1] (pH 6.5, modulator: ogerin). Further, in data set [2], the surface expression score amounted to 1.2.

Take MGNITADNSSMSCTIDHTIHQTLAPVVYVTVLVVGFPANCLSLYFGYLQIKARNELGVYLCNLTVADLFYICSLPFWLQYVLQHDNWSHGDLSCQVCGILLYENIYISVGFLCCISVDRYLAVAHPFRFHQFRTLKAAVGVSVVIWAKELLTSIYFLMHEEVIEDENQHRVCFEHYPIQAWQRAINYYRFLVGFLFPICLLLASYQGILRAVRRSHGTQKSRKDQIQRLVLSTVVIFLACFLPYHVLLLVRSVWEASCDFAKGVFNAYHFSLLLTSFNCVADPVLYCFVSETTHDDLARLRGACLAFLTCSRTGRAREAYPLGAPEASGKSGAQGEEPELLTKLHPAFQTPNSPGSGGFPTGRLA [R295D]: the cAMP reporter score in data set [1] (pH 5.5) is 0.629; in data set [1] (pH 6, modulator: ogerin) it was 0.685; in data set [1] (pH 6.5, modulator: ogerin), -0.558. The surface expression score in data set [2] came out at 0.632.
